# Data reported in PubChem BioAssay AID504467 (National Center for Advancing Translational Sciences (NCATS), 2011).
# In all, about 330,000 compounds went through this assay and about 7,700 (2.3%) were called active. Roughly 26% stayed inconclusive and do not appear here. Calls come from the whole dose curve; as a rule, active = well fitted inhibition curve with a large enough effect; inconclusive = small, poorly fitted or top-dose-only effect, or effect the other way; inactive = flat fitted curve, though single readings scatter. The list shows a part of the results, in another mix than the full data.
# Assay: qHTS screen for small molecules that inhibit ELG1-dependent DNA repair in human embryonic kidney (HEK293T) cells expressing luciferase-tagged ELG1; note: nearly all actives have a fitted effect of over 55% in size
# Conditions: HEK293T ELG1-luciferase reporter, luminescence, 16 h, DNA damage induced by 5-fluorouridine; series mostly up to 46.1 µM; activity change, negative = inhibition: at the top concentration
# Description: NIH Molecular Libraries Probe Production Network [MLPCN] NIH Chemical Genomics Center [NCGC] MLPCN Grant: 1 R03 MH092164-01 Assay Provider: Kyungjae Myung, NHGRI, NIH Keywords: MLPCN, qHTS, NCGC, genotoxicity, cancer Assay Overview: Cancer cells divide rapidly compared to normal cells in the body. During cell division, cancer cells need to duplicate their genome by DNA replication. The failure of genome duplication leads to cancer cells' death. Therefore, inhibitors of DNA replication could specifically kill cancer cells. Based on this concept, many chemotherapeutic agents were developed and have been used to treat cancer patients. However, there are a limited number of agents available in the clinical setting, and some of those that do exist have low efficacy and severe side effects. Therefore, if we can find the compounds that effectively block DNA replication either by directly damaging DNA or by inhibiting other cellular mechanisms, the options for cancer treatment will be broadened. With this in mind, we developed a quantitative high-throughput ELG1-luciferase reporter gene assay. Small molecules that specifically block ELG1 function in response to DNA damage can be identified by monitoring the suppression of luciferase activity. Since ELG1 defines a pathway for repairing DNA damage, agents blocking ELG1 function can be used to sensitize cancer cells to chemotherapeutic agents whose mechanism of action involves the induction of DNA damage.
# Assay Protocol Summary: For genotoxicity screening, 2,000 cells in 4 uL/well were dispensed into white, solid-bottom 1536-well plates using a solenoid-based dispenser. Following transfer of 1 uL 5-Fluorouridine and 23 nL compound or DMSO vehicle by a pin tool, the plates were incubated 16 hr at 37 °C and 5% CO2. 5 ul ONE-Glo (Promega) was then added to each plate and following a 30 min incubation at room temperature, luciferase activity was quantified on a ViewLux CCD-based plate reader.
# % is set by controls: 0 for no effect and ±100 for the full control effect; potency is the fitted concentration of half-maximal effect.
Structure (SMILES),Potency,"activity change, negative = inhibition"
CN(C(=O)c1cccs1)c1ccc(OCC(=O)N2CCC(C(N)=O)CC2)cc1,active: 14.6 µM,–
CC1(C)O[C@@H]2C[C@H]3[C@@H]4C[C@H](F)C5=CC(=O)C=C[C@]5(C)[C@H]4[C@@H](O)C[C@]3(C)[C@]2(C(=O)CO)O1,–,inactive: 10.8%
C=CC[C@@H](CC(=O)N[C@H](CO)Cc1ccccc1)C(=O)N[C@@H](COC(=O)[C@@H](CC=C)Cc1ccc(F)cc1)Cc1c[nH]c2ccccc12,–,inactive: -11.3%
COC(=O)[C@@H]1C[C@@]2(O)[C@@H](O)[C@@H](O)[C@@H](O)C[C@H]2N1Cc1ccc(C(F)(F)F)cc1,–,inactive: 20.6%
CC(C)(C)OC(=O)C[C@@H]1C/C=C\C[C@H](CC(=O)N[C@H](CO)Cc2ccccc2)C(=O)N2CCC[C@H]2COC1=O,–,inactive: 4.57%
O=C(C1=C[C@@H](C2CC2)C[C@@H](OCCCCO)O1)N1CCN(Cc2ccccc2)CC1,–,inactive: -9.4%
Cc1cccc(NC(=O)c2cc(-c3ccc(C)s3)nc3ccccc23)n1,active: 6.51 µM,–
CC(C)(C)OC(=O)C[C@H]1C/C=C\C[C@@H](CC(=O)N(CCO)Cc2ccccc2)C(=O)N[C@H](C(C)(C)C)COC1=O,–,inactive: 5.38%
C[C@H]1COC(=O)[C@@H](Cc2ccc(F)cc2)C/C=C\C[C@H](CC(=O)NCCO)C(=O)N1,–,inactive: 8.25%
CCO[C@@H]1OC(C(=O)N2CCCCCCC2)=C[C@H](c2ccc(C(F)(F)F)cc2)[C@H]1CCCO,–,inactive: 1.76%
CCOC(=O)c1nnn(-c2nc(OC)nc(N3CCCCC3)n2)c1-c1ccccc1,active: 18.4 µM,–
OCC[C@H]1C[C@@H](O)[C@H](O)[C@]2(CCc3ccccc3O2)O1,–,inactive: 2.76%
CC(=O)C[C@@H](O)CC(=O)[C@H]1OC(=O)[C@@H](C)C/C=C\Cc2ccccc21,–,inactive: 2.64%
CC(=O)n1cc([C@H]2C=C(C(=O)N3CCOCC3)O[C@@H](OCc3ccc(CO)cc3)C2)c2ccccc21,–,inactive: 0%
OCC[C@@H]1C[C@H](O)[C@@H](O)[C@]2(Cc3ccccc3CO2)O1,–,inactive: -14.4%
COc1cc(-c2nnc(CSc3nc4ccccc4s3)o2)cc(OC)c1OC,active: 11.6 µM,–
CCOC(=O)[C@@H]1[C@H]2COc3cc(OC)ccc3[C@H]2N2C(=O)N(c3ccc(C(F)(F)F)cc3)C(=O)[C@@]12C,–,inactive: 12.5%
CCO[C@@H]1OC(C(=O)N2CCOCC2)=C[C@H](c2ccccc2)[C@H]1CCCO,–,inactive: 33.6%
COc1ccccc1NC(=O)N1CCc2[nH]c3ccc(Cl)cc3c2C1,active: 16.4 µM,–
O=C(CNC(=O)/C(=C\c1ccccc1)NC(=O)c1ccc(Br)cc1)OCc1ccccc1,–,inactive: 4.11%
O=C(C[C@H]1C/C=C\C[C@H](Cc2ccc(F)cc2)C(=O)OC[C@@H]2CCCN2C1=O)N[C@H](CO)Cc1ccccc1,–,inactive: 7.24%
C[C@H](CCC(=O)NCC(=O)O)[C@H]1CC[C@H]2[C@@H]3[C@H](O)C[C@@H]4C[C@H](O)CC[C@]4(C)[C@H]3C[C@H](O)[C@]12C,inactive,–

Structure (SMILES),Potency,"activity change, negative = inhibition"
COc1cccc(C2c3[nH]c4ccccc4c3C[C@H]3C(=O)N(c4ccccc4C(=O)N4CCCC4C(=O)O)C(=O)N23)c1 (some centres undefined),–,inactive: -4.21%
COc1ccc(OCCNC(=O)c2ccccc2OCC(=O)Nc2ccc(NC(C)=O)cc2)cc1,active: 16.4 µM,–
COc1ccc(CC(=O)N[C@@H]2c3ccccc3CC[C@@H]2OCc2ccccc2)cc1,–,inactive: 23.5%
C[C@H]1CN([C@@H](C)CO)C(=O)c2cccc(NS(=O)(=O)c3ccc(F)cc3)c2O[C@H]1CN(C)S(=O)(=O)c1cn(C)cn1,–,inactive: 24.1%
CCOC(=O)[C@@H]1[C@H]2COc3ccccc3[C@H]2N2C(=O)N(c3ccc(C)cc3)C(=O)[C@]12C,–,inactive: -1.54%
CCOC(=O)[C@@H]1[C@H]2COc3ccccc3[C@H]2N2C(=O)N(c3cccc(F)c3)C(=O)[C@]12C,–,inactive: 6.15%
O=C(Nc1ccc(Cl)cc1)N1CCN(c2ccc3nnc(-c4ccc(F)cc4)n3n2)CC1,active: 4.61 µM,–
COc1ccc(C2Nc3ccccc3C(=O)N2Cc2ccco2)cc1CN1C(=O)c2ccccc2C1=O (centres undefined),–,inactive: -17.5%
Cc1cc(C(=O)N[C@@H](c2ccccc2)[C@]2(C)C[C@H]2[C@@H](C)C(=O)Nc2ccc3ccccc3c2)no1,–,inactive: 8.75%
COC(=O)c1ccc(CN2[C@H](C(=O)OC)C[C@@]3(O)[C@@H](O)[C@@H](O)[C@@H](O)C[C@@H]23)cc1,–,inactive: 12.9%
O[C@@H](c1cc(C(F)(F)F)nc2c(C(F)(F)F)cccc12)[C@H]1CCCCN1,–,inactive: 15.1%
CC(C)(C)OC(=O)C[C@@H]1C/C=C\C[C@H](CC(=O)N(CCO)Cc2ccccc2)C(=O)N2CCC[C@@H]2COC1=O,–,inactive: -7.28%
C[C@@H](NC(=O)[C@@H]1Cc2ccccc2CN1C(=O)OC(C)(C)C)C(=O)NCc1ccco1,–,inactive: 18.1%
NC(=O)c1ccsc1NC(=O)c1nc(-c2ccccc2)n(-c2ccccc2)n1,active: 18.4 µM,–
CCc1nnc(NS(=O)(=O)c2ccc(N/C=C/C(=O)c3ccc(C)cc3)cc2)s1,–,inactive: 25%
N=C1/C(=C/c2cccn2CCOc2ccccc2)C(=O)N=C2SC=C(c3ccccc3)N12,active: 18.4 µM,–
CCCC1CCC(C(=O)n2nc(N)c3cc4ccc(OC)cc4nc32)CC1 (centres undefined),active: 5.8 µM,–
O=C(NCc1ccccc1)C1=C[C@@H](c2csc3ccccc23)C[C@@H](OCCCCO)O1,–,inactive: -21.6%
O=C(C[C@H]1C/C=C\C[C@@H](NC(=O)OCC2c3ccccc3-c3ccccc32)C(=O)O[C@@H](c2ccccc2)CNC1=O)N[C@H](CO)Cc1ccccc1,–,inactive: -5.25%
OCC[C@H]1C[C@@H](O)[C@H](O)[C@]2(CCc3ccccc3CO2)O1,–,inactive: 7.93%
COC(=O)[C@@H]1C[C@@]2(O)[C@@H](O)[C@@H](O)[C@@H](O)C[C@H]2N1CC(c1ccccc1)c1ccccc1,–,inactive: 5.26%
CC1CN(c2nc3ccccc3nc2SCC(=O)Nc2ccc(F)cc2)CC(C)O1 (centres undefined),active: 16.4 µM,–
